According to PubChem BioAssay AID2675 (National Center for Advancing Translational Sciences (NCATS), 2010):
Screen size: about 280,000 compounds; about 100 (0.036%) were called active. This list was built around the results that the source calls inconclusive (neither active nor inactive); the mix of calls is not that of the screen. Calls come from the whole dose curve; as a rule, active = well fitted inhibition curve with a large enough effect in the signal ratio, with a control signal flat (not every such curve was filed as active); inconclusive = small, poorly fitted or top-dose-only effect, or effect the other way, or a change in a side signal; inactive = no such curve, though single readings can be large or run the other way; the % refers to the signal ratio. Where the call is inconclusive, the potency comes from a doubtful curve fit. A note “side channel” means that the fit belongs to a control or component signal, not to the main read-out.
% is set by controls: 0 for no effect and ±100 for the full control effect; potency is the fitted concentration of half-maximal effect; tags give direction and shape of the fitted curve or compound fluorescence and quenching.

These compounds were tested against Muscleblind-like protein 1 (Homo sapiens) (UniProt Q9NR56) (assay: qHTS Assay for Inhibitors of MBNL1-poly(CUG) RNA binding). Conditions: TR-FRET MBNL1-His/biotin-(CUG)12 binding, 665/545 ratio; activity change, negative = inhibition: at 57.5 µM (top of the series).
UniProt Q9NR56, sequence (Q9NR56 whole entry, looked up): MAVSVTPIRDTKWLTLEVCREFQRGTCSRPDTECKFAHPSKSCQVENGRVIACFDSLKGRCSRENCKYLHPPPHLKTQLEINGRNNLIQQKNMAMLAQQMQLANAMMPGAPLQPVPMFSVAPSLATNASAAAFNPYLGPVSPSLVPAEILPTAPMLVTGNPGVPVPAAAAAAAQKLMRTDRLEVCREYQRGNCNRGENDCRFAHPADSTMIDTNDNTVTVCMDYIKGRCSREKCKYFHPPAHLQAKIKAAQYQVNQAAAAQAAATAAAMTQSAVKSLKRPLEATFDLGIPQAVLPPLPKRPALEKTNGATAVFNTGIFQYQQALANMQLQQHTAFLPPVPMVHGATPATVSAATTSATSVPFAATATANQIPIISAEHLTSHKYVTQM
Outline: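 MBNL1-His + Biotin-(CUG)12, cpd titration 92 nM–58 uM; Tb anti-His Ab 0.055 ng/ul, SA-XL665 5 nM (final); 60 min RT; ratiometric 665/545 nm, Ex 340 nm; normalized to buffer and full-complex controls.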
In the case of `O=C(COc1ncnc2cc([N+](=O)[O-])ccc12)NC1CCCCC1`, the Potency was inconclusive: 4.47 µM [quencher, side channel, partial curve].
In the case of `CC1CCN(C(=O)Cn2cc(C#N)c3ccccc32)CC1`, the Potency was inconclusive: 63.1 µM [inhibitor, single point].
`COc1ccc(NC(=O)/C=C/C(=O)O)c([N+](=O)[O-])c1` was tested, and the Potency was inconclusive: 11.2 µM [quencher, side channel, partial curve].
`C=C(C)C(=O)Nc1ccc2c(c1)OCCOCCOCCO2` was tested, and the “activity change, negative = inhibition” value was inactive: -6.7%.
For `O=C(N/N=C/c1ccc(Sc2ccccn2)o1)c1cccc([N+](=O)[O-])c1`, the Potency was inconclusive: 3.98 µM [quencher, side channel, partial curve].
`CN1C(=O)C2C3c4ccccc4C(c4ccccc43)[C@@H]2C1=O` (stereo partly drawn) was tested, and the “activity change, negative = inhibition” value was inactive: 1.76%.
For `O=c1[nH]c2cc3c(cc2cc1C(c1nnnn1CC1CCCO1)N1CCCCCC1)OCCO3` (stereo not drawn), the Potency was inconclusive: 14.1 µM [quencher, partial curve].
For `Cc1ccc([N+](=O)[O-])cc1S(=O)(=O)NCCc1cn2ccccc2n1`, the Potency was inconclusive: 12.6 µM [quencher, side channel, partial curve].
`COc1ccc(/C=N/NC(=O)c2ccccc2[N+](=O)[O-])cc1CN1CCc2cc(OC)c(OC)cc2C1C` (stereo not drawn) was tested, and the Potency was inconclusive: 35.5 µM [quencher, side channel, single point].
For `COc1ccc(CNC(=S)Nc2cccc(F)c2)cc1`, the “activity change, negative = inhibition” value was inactive: -7.19%.
In the case of `COCCn1cc(C(=O)N2CCCC(C)C2)c2c3ccccc3n(C)c2c1=O` (stereo not drawn), the “activity change, negative = inhibition” value was inactive: 5.69%.
With `NC(=O)COC(=O)/C=C/c1ccc(S(=O)(=O)N2CCCCCC2)cc1` the Potency was inconclusive: 15.8 µM [quencher, side channel, partial curve].
For `O=C(Nc1cccnc1)c1ccc(NS(=O)(=O)c2cccc([N+](=O)[O-])c2)cc1`, the Potency was inconclusive: 20 µM [quencher, side channel, partial curve].
With `N=c1c(C(=O)NCc2ccco2)cc2c(=O)n3ccccc3nc2n1CCc1ccccc1` the Potency was inconclusive: 7.08 µM [quencher, side channel, partial curve].
With `O=C(c1c(F)c(F)c(F)c(F)c1F)N1CCN(c2cccc(C(F)(F)F)c2)CC1` the “activity change, negative = inhibition” value was inactive: 3.42%.
`COc1cc(/C=N\n2nnnc2N)ccc1OCc1ccc(F)cc1` was tested, and the “activity change, negative = inhibition” value was inactive: 14.1%.
With `O=C(N/N=C/c1ccc([N+](=O)[O-])cc1)C(=O)N1CCCC1` the Potency was inconclusive: 3.16 µM [quencher, side channel, full curve].
For `O=C1c2cccnc2C(=O)N1Cc1ccc(S(=O)(=O)NCc2ccco2)cc1`, the Potency was inconclusive: 15.8 µM [quencher, side channel, partial curve].
